We go through 111 molecules from PubChem BioAssay AID488969 (Vanderbilt High Throughput Screening Facility, 2010).

In all, about 110,000 compounds were measured (“z-score”: median about -0.1, highest 2% from about 2 on). This is one part of the list.

The target of this assay is Metabotropic glutamate receptor 8 (Rattus norvegicus) (UniProt P70579). As to the kind of experiment: mGluR8 Gi/Go-coupled signaling modulation – cell-based, rat, thallium flux, HTS, primary screen (AID 488969). The conditions noted are these: HEK293 rat mGluR8, GIRK (G protein-gated inwardly rectifying potassium channel) thallium flux, FluoZin2; at 10 µM; stronger effect = higher value; submaximal glutamate (EC20) added with thallium.
Chain of UniProt P70579 (P70579 whole entry, looked up): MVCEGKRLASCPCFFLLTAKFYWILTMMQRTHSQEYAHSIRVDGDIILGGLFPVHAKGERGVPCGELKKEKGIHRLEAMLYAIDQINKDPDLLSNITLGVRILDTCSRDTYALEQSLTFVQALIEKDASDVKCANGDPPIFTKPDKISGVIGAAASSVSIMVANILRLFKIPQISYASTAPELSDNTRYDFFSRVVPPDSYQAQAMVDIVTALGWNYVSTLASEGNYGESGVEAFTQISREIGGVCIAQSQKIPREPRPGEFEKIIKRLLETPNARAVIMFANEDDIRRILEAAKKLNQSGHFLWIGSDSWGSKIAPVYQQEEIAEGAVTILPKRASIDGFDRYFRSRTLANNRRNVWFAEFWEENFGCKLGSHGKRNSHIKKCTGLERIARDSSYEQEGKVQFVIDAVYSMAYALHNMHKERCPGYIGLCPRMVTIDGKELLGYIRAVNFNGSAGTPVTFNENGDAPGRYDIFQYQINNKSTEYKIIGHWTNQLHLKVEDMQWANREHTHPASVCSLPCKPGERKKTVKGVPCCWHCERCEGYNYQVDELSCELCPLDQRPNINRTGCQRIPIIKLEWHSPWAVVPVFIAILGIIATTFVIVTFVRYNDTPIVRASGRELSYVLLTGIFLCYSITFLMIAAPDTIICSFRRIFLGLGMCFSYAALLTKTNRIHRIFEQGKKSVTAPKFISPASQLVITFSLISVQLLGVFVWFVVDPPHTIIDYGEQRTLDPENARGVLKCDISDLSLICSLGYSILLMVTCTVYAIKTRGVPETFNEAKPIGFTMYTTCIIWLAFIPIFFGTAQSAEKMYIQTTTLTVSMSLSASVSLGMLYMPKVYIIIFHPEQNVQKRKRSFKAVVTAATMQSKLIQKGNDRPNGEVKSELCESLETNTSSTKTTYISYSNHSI
Turning to `CC(=O)c1c(C)[nH]c(-c2ccccc2)c1C`, the z-score is -0.274.

Molecule `Cc1ccc(CNc2nc3c([nH]2)c(=O)n(C)c(=O)n3C)cc1` had a z-score of -0.17.

Take `COc1ccccc1NC(=O)C1CCN(c2ncccn2)CC1`: the z-score was 1.08.

The molecule `COC(=O)c1ccccc1NC(=O)c1ccco1` came in with a z-score of -0.866.

`CCCSc1nc(NCc2ccco2)c2c3c(sc2n1)COC(C)(C)C3` showed a z-score of 0.73.

`Cc1cc(C)n(CC(O)COc2ccc(OCC(O)Cn3nc(C)cc3C)cc2)n1` (stereo unspecified) came in with a z-score of 0.123.

`O=C(CSc1nnc(-c2ccco2)o1)NC1CC2CCC1C2` (stereo unspecified) came in with a z-score of 0.346.

Take `CCc1cccc(NC(=O)C2CCN(S(=O)(=O)c3cccs3)CC2)c1`: the z-score is 0.0737.

Molecule `COc1cc(C)c(S(=O)(=O)Nc2ccc(CC(=O)O)cc2)cc1C` had a z-score of 2.01.

On to `O=C(Nc1ccn(Cc2c(F)c(F)c(F)c(F)c2F)n1)c1ccc(COc2ccccc2Cl)cc1`, for which the z-score was -0.215.

For the molecule `COc1ccc(/C=N/NC(=O)c2ccn[nH]2)cc1COc1ccc(Cl)cc1Cl`, the z-score was -0.25.

Molecule `COc1ccc(C(=O)Nc2cc(OC)c(NC(=O)c3ccco3)cc2OC)cc1` showed a z-score of -0.196.

`O=S(=O)(NCCSc1nnnn1-c1ccccc1)c1cccs1` came in with a z-score of -0.0979.

As to `CCN(CC)S(=O)(=O)c1ccc(NC(=O)C(OC)c2ccccc2)cc1` (stereo unspecified), the z-score worked out at 0.185.

On to `Cc1cc(=O)oc(C)c1C(=O)NCC1COc2ccccc2O1` (stereo unspecified), for which the z-score is -0.0515.

`O=C(/C=C/c1ccccc1)Nc1ccc(CN2CCOCC2)cc1` returned a z-score of -0.396.

The molecule `CCN(CC)c1ccc(C(=O)N/N=C(\C)c2ccc(O)cc2)cc1` showed a z-score of -0.249.

Take `Oc1ccc(/C=N/n2c3ccccc3c3ccccc32)cc1`: the z-score was -0.134.

Turning to `CNC(=O)NC(=O)C(C)OC(=O)c1oc2ccccc2c1CSc1ccc(Cl)cc1` (stereo unspecified), the z-score is -0.372.

As for `COc1ccc(S(=O)(=O)N2CN(Cc3ccco3)c3nc4ccccc4nc32)cc1`, the z-score was -0.783.

Take `O=C(NC1CC1)c1ccc2c(c1)NC(=O)c1ccccc1S2`: the z-score is -0.887.

The molecule `Clc1ccc(Cn2c(-c3cccnc3Cl)nc3ccccc32)c(Cl)c1` gave a z-score of 0.437.

For the molecule `CC(=O)c1ccc(OC(C)C)c(Cc2c(O)nc(N)[nH]c2=O)c1`, the z-score was -0.337.

Molecule `O=c1[nH]c(=O)n(-c2ccccc2)c2c1C(C(F)(F)F)(C(F)(F)F)N=C(C1CCCCC1)N2` displayed a z-score of 0.083.

`O=C(Nc1ccccc1)c1ccc(S(=O)(=O)N(CCO)CCO)cc1` returned a z-score of -0.105.

Turning to `CCn1c(C)[n+](CCOCC[n+]2c(C)n(CC)c3cc(Cl)c(Cl)cc32)c2cc(Cl)c(Cl)cc21`, the z-score is -0.0328.

The molecule `O=C(CC1CCCCC1)N1CCC(c2nc(-c3ccc(S(=O)(=O)N4CCCC4)cc3)no2)CC1` showed a z-score of -0.557.

`O=C(COc1ccccc1)N1CCc2ccccc21` gave a z-score of -0.0743.

For `O=C(CSc1nnc(-c2ccc(Br)cc2)o1)Nc1cccc2ccccc12`, the z-score is 0.475.

Regarding `Cc1[nH]n(-c2ncc(-c3ccc(Cl)cc3)s2)c(=O)c1C(c1ccc(Cl)cc1)C(C#N)C#N` (stereo unspecified), the z-score came to 1.02.

In turn, `Cc1cccc(OCCCC(=O)O)c1` came in with a z-score of 0.134.

On to `O=C(Nc1ccc(N2CCOCC2)cc1)c1cn2ccccc2n1`, for which the z-score was -0.142.

For the molecule `c1ccc(-c2ccc(C3=Nn4c(nnc4-c4cc(-c5ccccc5)n[nH]4)SC3)cc2)cc1`, the z-score is -0.236.

`O=C(O)/C=C/C(=O)Nc1ccccc1-c1ccccc1NC(=O)/C=C/C(=O)O`: the z-score is 0.157.

In the case of `COc1ccc2c(c1OC)C(=O)OC2Nc1nc(-c2ccccc2)cs1` (stereo unspecified), the z-score was -0.133.

As for `CC(=C1C(=O)c2ccccc2C1=O)N1CCC(C(N)=O)(N2CCCCC2)CC1`, the z-score was -0.313.

In turn, `CCC(C(=O)NC1CCCC1)N(Cc1cccs1)C(=O)Cn1nnc(-c2ccc(OC)c(OC)c2)n1` (stereo unspecified) showed a z-score of 0.331.

`COC(=O)CSc1nnc(-c2ccco2)n1Cc1ccco1`: the z-score was -0.57.

As for `CN(C)c1nc(N2CCN(c3ccc(F)cc3)CC2)c(C#N)c(=O)o1`, the z-score amounted to 0.0312.

The molecule `Cc1ccc(OCCn2cc(C#N)c3ccccc32)cc1` showed a z-score of 0.129.

`Cc1c2c(n3c(nc4ccccc43)c1C#N)N(c1ccccc1)CC2` yielded a z-score of -0.122.

`COc1ccc(N2CCN(Cc3cc(=O)oc4ccc(Cl)cc34)CC2)cc1`: the z-score was determined as 0.284.

As for `O=C(CSc1nncn1-c1ccccc1)NCc1cccs1`, the z-score was -0.0153.

`Cc1c(NS(=O)(=O)c2ccc3[nH]c(=O)[nH]c3c2)c(=O)n(-c2ccccc2)n1C`: the z-score stood at 0.504.

Turning to `Cc1cc2cc(CN(CCCN3CCOCC3)C(=O)NC3CCCCC3)c(=O)[nH]c2cc1C`, the z-score worked out at 0.705.

The molecule `Cc1cc(C)c(S(=O)(=O)Nc2ccc(-c3cn4ccccc4n3)cc2)c(C)c1` displayed a z-score of 0.241.

As for `O=C(CP(=O)(c1ccccc1)c1ccccc1)N/N=C/c1cc(Br)cc(Br)c1O`, the z-score is -0.352.

The molecule `Brc1ccccc1Cn1c(-c2cncs2)nc2ccccc21` had a z-score of -1.37.

For `O=C(O)c1ccc(N2C(=O)CC(Cc3ccccc3)C2=O)cc1` (stereo unspecified), the z-score is -0.0597.

In turn, `O=C(Cn1c(=O)oc2cc(S(=O)(=O)N3CCCC3)ccc21)N1CCc2ccccc2C1` showed a z-score of -0.0295.

Molecule `O=C(Nc1ccon1)c1ccc(Cl)s1` displayed a z-score of -0.406.

In the case of `CSc1nc(C)c(CCOCc2ccccc2)c(=O)[nH]1`, the z-score is -0.044.

`Cc1ccc(/C=N/NC(=O)C2CC(=O)N(c3ccccc3)C2)s1` (stereo unspecified) had a z-score of -0.106.

Take `O=C(Cc1csc(N2CCOCC2)n1)N/N=C/c1ccc(F)cc1`: the z-score was -0.627.

In turn, `Cc1cccc(N(C(=O)CNC(=O)c2cccs2)C(C(=O)NC2CCCC2)c2cccnc2)c1` (stereo unspecified) returned a z-score of -0.122.

In turn, `O=C1S/C(=C/c2ccccc2F)C(=O)N1CCN=C1NS(=O)(=O)c2ccccc21` yielded a z-score of -0.278.

`O=C(CCc1ccc(S(=O)(=O)N2CCOCC2)cc1)NCCCN1CCCC1=O` gave a z-score of 0.363.

Regarding `CC1Cc2cc(C(=O)O)ccc2O1` (stereo unspecified), the z-score stood at 0.0864.

In turn, `O=C(NC1(C(F)(F)F)NC(=O)N(CCc2ccccc2)C1=O)C1CC1` (stereo unspecified) yielded a z-score of 0.0916.

The molecule `COc1cc(/C=N/NC(=O)C2c3ccccc3Oc3ccccc32)ccc1O` yielded a z-score of 0.137.

On to `CCOC(=O)c1c(C)n(C)c2ccc(OC)c(NC(=O)c3cccs3)c12`, for which the z-score was 0.203.

Molecule `CC1(C)CC(=O)c2c(n(-c3cccc4ccccc34)ccc2=O)C1` registered a z-score of -0.339.

In turn, `CCC(=O)Nc1ccc(NC(=O)c2ccco2)c(OC)c1` yielded a z-score of 0.122.

As for `CCOC(=O)Cn1c(=O)c(-c2ccccc2NC)nc2ccccc21`, the z-score is -0.163.

In the case of `Cc1cccc2sc(NC(=O)CSc3nc4ccccc4o3)nc12`, the z-score was found to be 0.0847.

The molecule `COC(=O)c1ccc(OCC(=O)c2ccc(C)c(C)c2)cc1` returned a z-score of -0.0502.

`CCCCCc1c(C)nc(N2CCc3ccccc3C2)[nH]c1=O` showed a z-score of 0.708.

For the molecule `Cc1ccccc1C(=O)N/N=C1/SCC(=O)N1Cc1ccc2c(c1)OCO2`, the z-score was -0.0826.

Molecule `O=C(Nc1nccs1)c1ccc(-c2ccc(Cl)cc2Cl)o1` came in with a z-score of -0.313.

`Cc1ccsc1C(=O)OCC(=O)Nc1sccc1C(N)=O` gave a z-score of 0.376.

`Cc1cccc(NC(=O)c2ccccn2)c1C` gave a z-score of 0.479.

In the case of `CC(C)(C)c1ccc(C(=O)NCCC(=O)NCc2ccco2)cc1`, the z-score stood at 0.46.

`Cc1cc(O)ccc1N/C=C1\CCCC1=O` came in with a z-score of 0.233.

Turning to `COc1ccccc1OCC(=O)N1CC2(C)CC1CC(C)(C)C2` (stereo unspecified), the z-score is -0.444.

Turning to `c1ccc(-c2nnc(SCCC3OCCCO3)o2)cc1`, the z-score is -0.0671.

`CCOC(=O)CSc1nnc(Cc2ccccc2)n1-c1cccc(Cl)c1` gave a z-score of -0.436.

Take `Cc1nc2ccc(NC(=O)c3sccc3C)cc2s1`: the z-score was -0.477.

On to `O=C(c1cccc(F)c1)n1nnc2ccccc21`, for which the z-score was 0.419.

Regarding `COc1ccc(CNC(=O)CN(c2cc(C)cc(C)c2)S(=O)(=O)c2c(C)noc2C)cc1`, the z-score was -0.0907.

Turning to `COc1cc(OC)c(C2CC(=O)N3CN(c4ccc(C)cc4)CSC3=C2C#N)cc1OC` (stereo unspecified), the z-score was found to be 0.362.

Consider `O=C(Nc1ccccc1C(=O)NCc1ccccc1)c1ccccc1Br`, for which the z-score was -0.438.

`O=S(=O)(c1cc(Cl)cc(Cl)c1)N1CCCC1c1nc2ccccc2s1` (stereo unspecified) gave a z-score of -0.294.

Turning to `O=C(c1ccco1)N(Cc1cc2ccccc2[nH]c1=O)C1CCCCC1`, the z-score is -1.01.

As to `Nc1sc2c(c1C(=O)NC1CCS(=O)(=O)C1)CCCC2` (stereo unspecified), the z-score came out at 0.0575.

Molecule `CCOC(=O)/C(C#N)=C/c1ccc(-c2ccsc2C(=O)OC)o1` had a z-score of -2.97.

With `COc1cccc(-n2c(Cc3cc(=O)[nH]c(=O)[nH]3)nnc2SCC(=O)N2CCCCC2)c1`, the z-score was -0.312.

In turn, `Cc1ccc(S(=O)(=O)N2CCOCC2)cc1C(=O)N1CCOCC1` had a z-score of -0.483.

Take `CC1CN(C(=O)CSc2nnc(-c3ccncc3)n2-c2ccccc2)CC(C)O1` (stereo unspecified): the z-score is 0.267.

`N#Cc1nc(COc2ccc(Br)cc2)oc1N1CCCC1` gave a z-score of 0.0368.

`COC(=O)c1ccccc1NC(=O)CSc1ccc(C)cc1` returned a z-score of -0.243.

`COCCn1nnnc1C(c1cccc(C(F)(F)F)c1)N1CCOCC1` (stereo unspecified): the z-score came to 0.00424.

As for `CCOC(=O)C/C(C)=N/NC(=O)c1cccs1`, the z-score was -0.0932.

Molecule `NCCc1nnc(SCC(N)=O)o1` displayed a z-score of 0.0432.

Regarding `Cc1ccc(C(=O)Oc2coc(CSc3nnc(NC(=O)C4CC4)s3)cc2=O)cc1C`, the z-score was found to be 0.84.

Regarding `Cc1cccc(NC(=O)c2cc3n(n2)C(C(F)(F)F)CC(c2ccc4c(c2)OCO4)N3)c1` (stereo unspecified), the z-score was 0.258.

For the molecule `CSc1nc(C)cc(OCCNS(=O)(=O)c2ccc(C)cc2)n1`, the z-score was -0.0241.

For the molecule `CCCn1c2ccccc2c2nnc(SCC(=O)OCC)nc21`, the z-score is -1.64.

As to `CC1CN(C(=O)COc2ncnc3ccccc23)CC(C)O1` (stereo unspecified), the z-score worked out at 0.198.

With `N#Cc1ccc(CSc2nnc(-c3ccccn3)n2-c2ccccc2)cc1`, the z-score was -0.343.

Molecule `O=C(COC(=O)c1ccccn1)Nc1c(Cl)cccc1Cl` yielded a z-score of 1.69.

Molecule `CCCNC(=O)COC(=O)c1ccc(OCC(=O)Nc2ccccc2OC)c(OC)c1` showed a z-score of -0.112.

Consider `CCc1nnc(NC(=O)c2cnccn2)s1`, for which the z-score turned out to be 0.354.

Molecule `O=C(c1ccco1)N1CCN(c2ccc(Cl)c(Cl)c2)CC1` displayed a z-score of -0.938.

As to `Cc1c(NS(=O)(=O)c2ccc(N3CCCCC3)c([N+](=O)[O-])c2)c(=O)n(-c2ccccc2)n1C`, the z-score turned out to be 0.0368.

`CC1(C)CC(=O)c2c(nc3ccccc3c2N)C1` came in with a z-score of -1.01.

As for `COc1cccc(NC(=O)c2ccc(CN3CCOCC3)cc2)c1`, the z-score was -0.0995.

The molecule `Cc1cc(C)n(Cc2ccc(C(=O)O)cc2)n1` returned a z-score of 0.0792.

`Cn1c(=O)c2c(ncn2Cc2cc(-c3ccccc3)no2)n(C)c1=O` had a z-score of 1.04.

For the molecule `Cc1cc(C(=O)Nc2ccc(N3CCCC3)c(Cl)c2)ccc1[N+](=O)[O-]`, the z-score is -0.075.

In turn, `CC(C)N(O)C(=O)NC(C)(C)C` showed a z-score of 0.872.

In the case of `Cc1ccsc1C(=O)OCC(=O)c1cc(C)n(CC2CCCO2)c1C` (stereo unspecified), the z-score was -1.25.
